# ± gives the standard deviation of the averaged measurements. The list shows a part of the results.
# System: PfAP2-EXP AP2 domain (GST-tagged)
# Assay: gcPBM binding intensity (ln(normalized median fluorescence intensity)); higher = stronger DNA binding
# Procedure, shortened: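 The highest Masliner-normalised natural-log median intensity across replicate spots of either probe orientation is reported as binding intensity. GST-tagged P. falciparum DNA-binding domains expressed in E. coli were applied for 1 h to an Agilent 4 × 180k array of primer-extended double-stranded 36-bp intergenic genomic probes plus negative controls, and bound protein was detected with Alexa488 anti-GST antibody and scanned at 488 nm.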
row,Sequence,gcPBM binding intensity (ln)
1,TCAAGTATTAAAATGGGTACATAAATATGTGTATAT [XGTACX_site5884],8.65 ± 0.25
2,CTTTTTAAATTAAAATGTACAGAAAAATATTATTAT [XGTACX_site8760],8.36 ± 0.18
3,TATTTTTCTTTTTTTTTTTTTTTTATATTATACGTG [XGTACX_negctrl_site363],8.31 ± 0.59
4,TGGATAATGAATGATGCACACTAAAAATATTCTACA [CACACA_site5912],8.4 ± 0.16
5,CGGCACGTGATATATACACACATATAGATATATACA [CACACA_site6408],8.67 ± 0.49
6,TATTTGTAAATCGATACACACATATATCTTAATATA [CACACA_site4273],8.27 ± 0.53
7,CTCAATATTATTACTACACACAAATTAATATTTTCC [CACACA_site55],8.51 ± 0.5
8,ATATATACTATATTTTAACACACAAAAAAAAAAAAT [CACACA_site8277],8.54 ± 0.55
9,CACCCACCCAGACACACACACACAAAAAAAAAAAGA [CACACA_site499],8.62 ± 0.45
10,TGTTAATTGAATGCAATCTGAATTTTTTTACATAAT [CACACA_negctrl_site1002],8.38 ± 0.3
11,CTTTTTTCAAGACACACACACAAGAAAATATAAATA [CACACA_site7455],8.76 ± 0.5
12,TTATTTTGTTTATTATGTACACAAAGACATAATAAT [XGTACX_site5648],8.51 ± 0.27
13,CACTTACATAATTATTGTACAGATATTATCAAATAA [XGTACX_site567],8.47 ± 0.26
14,ACTTATATTATAAATTGTACAAATATTATATTTGGT [XGTACX_site1424],8.64 ± 0.38
15,TTTTTTTTTTTTAAATGTACTTATCAACTTTTATAT [XGTACX_site4641],8.42 ± 0.42
16,ACGGACAATACGGAAACACACAAGTTATTTTATCAT [CACACA_site7310],8.59 ± 0.46
17,TACGTAAAAATAATACGTACATATATTTATAGAAAA [XGTACX_site4959],8.53 ± 0.23
18,AAAAAAAAAAGACACACACACACACGCATATACATA [CACACA_site7289],8.62 ± 0.69
19,AATATATGTAAATGGACACACACATATATATATATA [CACACA_site9220],10 ± 0.28
20,AATAAAATAATCCAAGTGCATATGTAAAAATACATT [GTGCAC_site9576],8.31 ± 0.33
21,ACATAATATATATATTAACACACATCCTTTTATGTA [CACACA_site8317],8.71 ± 0.28
22,TTCTGTGTCTAAAAATGTACGGGAATATATAAAAGT [XGTACX_site2090],9.04 ± 0.32

row,Sequence,gcPBM binding intensity (ln)
1,TGACTTTGTTGAATTTGTCCTCTTAACTCATAATAT [GTGCAC_negctrl_site217],8.18 ± 0.23
2,ATACATATATATAGGTGTACATATAATATATATATA [XGTACX_site2228],9.3 ± 0.12
3,AACCATGTTAACAATGCATGCATCACTATATAAACG [TGCATGCA_site421],9.79 ± 0.53
4,TTTAATTTTACATGAGAAACATATTACAATAAAATA [GTGCAC_negctrl_site606],8.29 ± 0.36
5,ATATTTTTTGGAAAGTGTACAATATTATATATTAAA [XGTACX_site2163],8.38 ± 0.37
6,GAAATACCGGAAAGCAAACACACATTTTAAAACCAT [CACACA_site3861],8.86 ± 0.57
7,ATATAATAGAAGTGTACACACATATTTATGTCTGTA [CACACA_site3121],8.65 ± 0.45
8,ATGGATAACAATATGTGTACACATTTATATCTCCAC [XGTACX_site5457],8.8 ± 0.21
9,ATACATTTTTTTTATACGCACACGTCATACTTTTAA [CACACA_site1638],8.88 ± 0.42
10,AAGCATGGATATTTTACACACATTTCCACGTAACAA [CACACA_site3141],8.47 ± 0.33
11,CTAGCAAATACATACACACACACACCGATACATATA [CACACA_site9164],8.62 ± 0.51
12,ACAAGACAGATATATACACACATACATACATACATA [CACACA_site7472],8.73 ± 0.38
13,TTTCTTAAAAAAAAAAAAAAAAGAAGATAAATAAAA [CACACA_negctrl_site289],8.38 ± 0.49
14,TTTAACTTATTCAATGCACACATTTTAATAAGATAT [CACACA_site1967],8.21 ± 0.34
15,ATATTTATTTATATTACACACATGTGCAATTAAACT [CACACA_site6928],8.64 ± 0.22
16,TATAAAAAATAAAAAGTTTAATGAATATTTCTTTTA [TGCATGCA_negctrl_site379],7.75 ± 0.47
17,TCACATGGAAAAAAGTGTACATAATTATGTATAAAT [XGTACX_site2827],8.85 ± 0.28
18,ATATATATAACATATACACACGTTCATATATATATA [CACACA_site4416],9.84 ± 0.14
19,TAATTTTTATTTTATTTTATTTTTTTTTTTTTTATT [CACACA_negctrl_site1671],8.1 ± 0.4
20,TTACAAGTAAAAGGTACACACATTATATATACAAAT [CACACA_site8290],8.71 ± 0.42
21,TTATATATATTTAAATTTTATCTCACATATATATAT [TGCATGCA_negctrl_site275],9.255 ± 0.092
22,TCCCTAAAAAATGATAAATGGAGACAATTCCGACAA [GTGCAC_negctrl_site209],8.43 ± 0.29

row,Sequence,gcPBM binding intensity (ln)
1,AATACAATTTCTAGCACACAAAATATTATTATAATT [CACACA_site3223],8.5 ± 0.35
2,AAAAAAAAAAAAATCACACACAATATGAATTTATAG [CACACA_site601],8.11 ± 0.43
3,AAAAAACAATCTCATACACACTAGGGATTAATTATT [CACACA_site5051],8.41 ± 0.36
4,TATAGAAGCGTTCACACACACACATACATACCCATA [CACACA_site4915],8.78 ± 0.39
5,TGTAGTCTGGAGAAAAGTACATAGTATCTGATAACC [XGTACX_site2018],8.77 ± 0.47
6,GTGCATATATGATATACACACAATATAATAGTATGT [CACACA_site2460],8.46 ± 0.27
7,AATATAATGTAATATACACACATATATTTCTCTTTT [CACACA_site5451],8.24 ± 0.39
8,AAGAGTTTGAAGTTTGCACACTACGTTAAAAATAAA [CACACA_site3939],8.37 ± 0.4
9,AAAAATTTATTTTTAGGTACACAATTGAATTATTTA [XGTACX_site7008],8.16 ± 0.27
10,CCACATTTTACAGACACACACAATTTATATTACGGT [CACACA_site1894],8.56 ± 0.51
11,ATATATTTAAATAAAAGTACGTAAAGGTATATTTAA [XGTACX_site8088],8.79 ± 0.4
12,ATAATAAAAAAAAAATGTACATAAATCTAAAATCCT [XGTACX_site5823],8.58 ± 0.44
13,TGAAGAAAATATTAATGTACATATTATATATATATA [XGTACX_site5497],9.73 ± 0.19
14,CCTCCCATTTTTACACGTACACATTTAAAATAGACT [XGTACX_site5640],9.11 ± 0.56
15,AATACAATTTATAACACACACACAATAATACATATA [CACACA_site1252],8.83 ± 0.42
16,GTATTTTTTTTAATATGTACATATAAAATATTTTAT [XGTACX_site8329],8.96 ± 0.31
17,ATATAAGTTTATATATGTACATATATATATTATATA [XGTACX_site2068],8.4 ± 0.26
18,AATTCATTTAAAAGTTGTACAAGCTTAATAAAAAAA [XGTACX_site6073],8.54 ± 0.43
19,ATATACACATAAAGTAGTACACCTGAAATTTTTTTT [XGTACX_site2951],8.52 ± 0.21
20,GAGGATATATTATATGTACACACATATATAACGGAT [CACACA_site8361],8.8 ± 0.33
21,CCCATGCATTTTTGCACACACATATATATATAAATA [CACACA_site1430],8.95 ± 0.23
22,AATTAAAAATATAAATGTACATATATGTAAAACTTT [XGTACX_site123],8.7 ± 0.53

row,Sequence,gcPBM binding intensity (ln)
1,TTAATCATAAAAGTCACACATAATAAGAAAAAGCTT [CACACA_site4616],8.62 ± 0.54
2,AATATATGAATTAGAAGTACAAATAAATATTTATTT [XGTACX_site2062],8.54 ± 0.36
3,GTTTGTATAGGTTCATGTACAAAAAAAAAAAAAAAA [XGTACX_site537],8.32 ± 0.41
4,TTTAAAACCCTAAAAAAAAAAAAAAAAAAAAAAAAA [CACACA_negctrl_site1212],7.96 ± 0.33
5,ATGCATAAAAGAAATACACACATAAATATGTAAATA [CACACA_site7087],8.52 ± 0.59
6,TTAAAACATATTTTGAATTAATATATTTTAATATTA [XGTACX_negctrl_site148],7.72 ± 0.39
7,TAGCGTACATTTCATTGTAATCATAAAAAATAAAGA [CACACA_negctrl_site447],8.56 ± 0.49
8,ATTCATATGTGACACACACACACACGCATAAAAAAA [CACACA_site7515],8.73 ± 0.51
9,TTTATTAGAACCGTACGTACATAGTTATTTTTTCAA [XGTACX_site8848],8.44 ± 0.32
10,ACAAAAATATATATATGTACATATATCATCATAATA [XGTACX_site5850],8.48 ± 0.42
11,TATATATATATATGGGTGCATTTTTTTGTCCATGTA [GTGCAC_site9868],10.1 ± 0.2
12,ATAAAATAAATGAAAAATGTAAAATGAGAAAAAAAT [CACACA_negctrl_site1026],9.1 ± 0.42
13,TATGCTATAATACTCTGTACTTACTAATTTAATAAT [XGTACX_site5926],8.38 ± 0.59
14,TACATATTTTTTATATGTACATATTTTTTATGTGTA [XGTACX_site442],8.51 ± 0.38
15,TAATAAACAAATTCCAAAATAAATTAAAAGGAAAAT [CACACA_negctrl_site1404],8.47 ± 0.35
16,AGGTATATATTACAAGTGCACTGTAAAATTAAAATT,8.77 ± 0.15
17,TTTTATCTCATTCATCAAAATCACCGGAATCATATA [CACACA_negctrl_site357],8.61 ± 0.3
18,ATTTTATCATAATAAAGTACAAAGATGCAAATAATA [XGTACX_site2270],9.06 ± 0.38
19,ATTTATTTATATTTAGTGCAATACTATTTTTAAATA [GTGCAC_site9886],8.47
20,GTAATGTCGTCGTTTTGTACATATTTTTATAAAAAG [XGTACX_site2688],9.06 ± 0.45
21,TATTATAAATTAATTTTAAACTTTATTATTATGATA [GTGCAC_negctrl_site389],8.03 ± 0.41
22,TTAAAATTATATCTGTGTACATAAATTGTGTAACTA [XGTACX_site1966],8.35 ± 0.28

# From the supplement of paper PMC11417369
